# The supplement of paper PMC10126150
# Values marked as one replicate rest on one cluster of the flow cell; about a third of the high ones do not repeat.
# Tested on: ATP
# Experiment: switch fluorescence ratio, 500 uM ATP over buffer (Cy3 cluster intensity, sum of 5 cycles each) (fold (ratio)); higher = stronger signal-on switching upon ATP binding; sequences stand for … in TCGTCGGCAGCGTCAGATGTGTATAAGAGACAGTTTTTTTTTTTTTTTTTTTTTTTTT…TC
# Settings: aptamer strand: ATP DNA aptamer (quencher-CACCTGGGGGAGTATTGCGGAGGAAGG + anchor), 100 nM annealed; ATP concentration: 500 uM; one replicate
# In short: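 Values give the fluorescence ratio for each switch-domain sequence, averaged from per-cluster ratios of summed target-cycle to summed buffer-cycle Cy3 intensity. The Cy3-labelled switching-strand clusters sat on a modified Illumina MiSeq flow-cell, were annealed to 100 nM quencher-labelled ATP aptamer, and were imaged in selection buffer, then after 15 min with 500 uM ATP at 22 °C. Five cycles ran with NaOH stripping and re-annealing between them, and clusters outside 100-1000 RFU were excluded.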
# 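Further: ATP exposure 15 min at 22 °C before imaging.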
row,Sequence,switch fluorescence ratio
1,GGTATTAATC,0.98
2,GGTATTAGAA,0.95
3,GGTATTATGA,1.02
4,GGTATTCGA,0.997
5,GGTATTCGCC,0.973
6,GGTCAAGGTA,0.994
7,GGTCACGAGC,1.02
8,GGTCACTAGC,1.02
9,GGTCAGCCTG,1.02
10,GGTCAGCGTG,0.986
11,GGTCATATGA,1.04
12,GGTCATTAAG,1.03
13,GGTCCATCAA,1.02
14,GGTCCATTGC,1.01
15,GGTCCCGTAT,0.957
16,GGTCCGCGTC,0.98
17,GGTCCGCTAG,1.63
18,GGTCCGGAGA,1.03
19,GGTCCTCAGG,1.23
20,GGTCCTCCTT,1.04
21,GGTCGAATAC,2.42
22,GGTCGATTGC,1.01
23,GGTCGGCCCG,0.941
24,GGTCGTGAAC,1.01
25,GGTCGTTTGT,0.99
26,GGTCTAGGTT,0.985

row,Sequence,switch fluorescence ratio
1,GGTCTCAATC,1.03
2,GGTCTCACTC,1.05
3,GGTCTCTA,0.98
4,GGTCTCTCAG,0.983
5,GGTCTCTCTG,1.06
6,GGTCTGACTT,1.01
7,GGTCTGGATA,0.975
8,GGTCTGTTAC,1.06
9,GGTCTTAATT,1
10,GGTCTTCTTG,0.955
11,GGTCTTGAAT,0.981
12,GGTCTTGCGG,0.957
13,GGTGAAAGGG,0.995
14,GGTGAAGTTT,0.939
15,GGTGAATAGA,1.01
16,GGTGAATCTA,0.983
17,GGTGAATTTG,0.992
18,GGTGACGATA,1.03
19,GGTGACTCGT,1
20,GGTGAGATTG,1
21,GGTGAGGAGT,1
22,GGTGATATCG,1.02
23,GGTGCAAATC,1.17
24,GGTGCACACG,0.969
25,GGTGCAGACC,1.01
26,GGTGCCAGCA,1.02

row,Sequence,switch fluorescence ratio
1,GGTGCCCTTG,0.979
2,GGTGCGCGTC,0.981
3,GGTGCGGATA,0.966
4,GGTGCGGTAC,2.91
5,GGTGCGGTTA,0.961
6,GGTGCTAGCA,1.08
7,GGTGCTATAA,1.09
8,GGTGCTATTC,1.02
9,GGTGGACCAC,0.976
10,GGTGGACGCA,0.992
11,GGTGGAGCCA,0.999
12,GGTGGGAAAG,1.01
13,GGTGGGCTGT,1.03
14,GGTGGGGGA,1.04
15,GGTGGGGTG,1.05
16,GGTGGTAGTG,0.981
17,GGTGGTGCAC,0.978
18,GGTGTACATG,1.01
19,GGTGTACGTA,0.916
20,GGTGTCCGCG,1.01
21,GGTGTGACTT,1.02
22,GGTGTTGCAG,0.962
23,GGTTACAGAC,1.03
24,GGTTACGAGA,1.04
25,GGTTACTTTC,1.06
26,GGTTAGTTAA,1.01

row,Sequence,switch fluorescence ratio
1,GGTTATAGCA,0.971
2,GGTTATCCGA,0.979
3,GGTTATGTAC,1.04
4,GGTTCACTC,1
5,GGTTCCGGGC,1.1
6,GGTTCTGCTT,0.988
7,GGTTCTTGCC,0.971
8,GGTTGATTTC,0.936
9,GGTTGCCGGC,0.971
10,GGTTGCCTTT,1
11,GGTTGCGCG,1
12,GGTTGCGGAC,1.03
13,GGTTGCTTAG,0.991
14,GGTTGGACTC,0.979
15,GGTTGTCCA,0.951
16,GGTTGTGGG,0.983
17,GGTTGTTGAC,0.969
18,GGTTTAAATC,0.992
19,GGTTTAACTC,0.979
20,GGTTTATAGG,0.973
21,GGTTTCGGAG,1.03
22,GGTTTCTAAA,0.975
23,GGTTTGCATC,1
24,GGTTTGT,1.03
25,GGTTTTAACT,0.985
26,GGTTTTAAGA,1.02

row,Sequence,switch fluorescence ratio
1,GGTTTTCCCG,1
2,GTAAAAAAGC,0.975
3,GTAAAAGACT,1
4,GTAAAAGATG,1.04
5,GTAAAAGGGA,0.952
6,GTAAACCGGG,1.01
7,GTAAACCGTG,1.06
8,GTAAACGTGT,1.01
9,GTAAATAGGT,1
10,GTAAATCGGT,1.04
11,GTAAATGATA,1.03
12,GTAAATGTTA,0.981
13,GTAACAGTGT,1.01
14,GTAACATATC,1.06
15,GTAACATCTT,0.97
16,GTAACTACGA,1.1
17,GTAAGAATGT,1.04
18,GTAAGAGTTA,1
19,GTAAGGCGTT,0.999
20,GTAAGGGCGG,1
21,GTAAGGGGG,0.97
22,GTAAGGTGTT,1.15
23,GTAATAACA,0.985
24,GTAATACGCG,1.03
25,GTAATAGATT,0.926
26,GTAATAGTGG,1

row,Sequence,switch fluorescence ratio
1,GTAATATCCG,1.02
2,GTAATCGTAG,0.927
3,GTAATCTTAG,0.963
4,GTAATGCGTA,1.03
5,GTAATGTTTG,1.01
6,GTAATTGGCA,0.993
7,GTAATTGTTG,0.956
8,GTAATTTGCC,0.984
9,GTACAAAGTT,1.03
10,GTACCCGGTG,1.78
11,GTACCCTAAC,1.17
12,GTACCGGGTG,0.989
13,GTACGCCCAA,1.23
14,GTACGCTAAT,1.51
15,GTACGTAGCT,1.18
16,GTACTCGACA,1.14
17,GTACTGGCTG,0.95
18,GTACTTAACG,1.13
19,GTACTTCCTA,1.08
20,GTACTTGGAC,1.02
21,GTACTTGGAG,1.02
22,GTAGAAGGAG,1.02
23,GTAGACCCTT,1.02
24,GTAGATGCCC,0.977
25,GTAGATGGCG,0.987
26,GTAGCAGGGT,1.05

row,Sequence,switch fluorescence ratio
1,GTAGCATAAA,1.34
2,GTAGCGAGGT,1.07
3,GTAGCGTGCT,0.994
4,GTAGCTCAAC,1.85
5,GTAGGATTTA,0.946
6,GTAGGCCGGT,1.01
7,GTAGGCGATG,0.981
8,GTAGGGAGCC,1.04
9,GTAGGGTACG,0.993
10,GTAGGTCAGC,0.996
11,GTAGGTGGGT,1.02
12,GTAGGTTAGA,1.05
13,GTAGGTTTCT,1.03
14,GTAGTAGGG,0.973
15,GTAGTATCTC,1.02
16,GTAGTCCCTC,1.01
17,GTAGTCGTAA,1.01
18,GTAGTCTATG,0.945
19,GTAGTGGGG,1
20,GTAGTTGTAA,0.992
21,GTATAAATTA,1.01
22,GTATACTAAG,1.02
23,GTATAGTGGG,1.02
24,GTATATAAAG,1.01
25,GTATATGCGC,0.934
26,GTATATGGTT,0.973

row,Sequence,switch fluorescence ratio
1,GTATCACAGT,0.983
2,GTATCATTGA,0.991
3,GTATCGTTGT,0.943
4,GTATCTTGGT,1
5,GTATGATCCG,1.18
6,GTATGGC,1
7,GTATGGCTTA,1.02
8,GTATGTGGAG,0.982
9,GTATTAAAGA,0.974
10,GTATTAGTCC,0.96
11,GTATTATTTG,1.01
12,GTATTGATAA,0.934
13,GTATTGGCAA,1
14,GTATTTATGT,0.985
15,GTATTTTTGT,1.03
16,GTCAAAAACT,1.09
17,GTCAAAGT,0.995
18,GTCAACATAG,1.02
19,GTCAACTGAT,1.08
